For 84 variants, self-cleavage results are on record in the RNAGym collection of RNA variant scans (doi:10.1093/nar/gkz1192).

The source gives no read counts; variants with many changes may rest on few reads.

B1: CPEB3 Ribozyme (parent)
chain: UAACAGGGGGCCACAGCAGAAGCGUUCACGUCGCAGCCCCUGUCAGAUUCUGGUGAAUCUGCGAAUUCUGCUGUAUAUCUC

The variants in this data set derive from B1. Nature of the data set: self-cleavage, relative activity (ratio to wild type); higher = more cleavage; in vitro, sequencing. The procedure, abridged: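 Barcoded CPEB3 ribozyme mutants, produced by rounds of error-prone PCR, self-cleaved while being transcribed with T7 RNA polymerase for 5 hours at 37°C and during a subsequent 15 min DNase I step before EDTA was added. Sequencing of template-switched cDNA on Illumina gave cleaved and total reads, and DNA sequencing assigned barcodes to variants. Each variant's relative activity is its cleaved/total read fraction divided by the unmutated ribozyme's fraction, averaged across three batches. A variant needed a minimum of 5 reads.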
In the case of A20U U26A A28G A35G A57G U67C, the self-cleavage is 0.09.
As for A20G U31C U72C, the figure is 0.53; as for A20G U26C A56G G61A, 0.05.
For A20G A56G A64G U69A, the self-cleavage turned out to be 0.2.
Turning to A20G G36A A57G U60C U69C, the self-cleavage turned out to be 0.3.
With A20G A28C U51A U78C, the self-cleavage came to 0.26.
Turning to A20U U31C U43A U67C U69C U72G, the self-cleavage is 0.07.
In the case of A20G U41G U69C A77G U80C it was 0.09; in that of A20G C27U U60C, 0.27.
As for A20G U41C A45U A64G, the figure is 0.16.
As for A20G U26G C32A A45U U51C C68U U80C, the figure is 0.13; as for A20G U31C A35G U49C A56G A65G, 0.23; as for A20G A35C U58C, 0.57.
With A20G C32U A77G, the self-cleavage amounted to 0.22.
For the variant A20U A21U G24A G52A U66C U69C, the self-cleavage is 0.07.
Turning to A20G C37U U58C U69C U72C U76C, the self-cleavage turned out to be 0.03.
For the variant A20G A35U A56U C62U, the self-cleavage came to 0.06.
As for A20G U31C A35G U43A, the figure is 0.48.
Take A20G U41C U51C U60C U72A: the self-cleavage was determined as 0.26.
As for A20U U43A A45G, the figure is 0.13; as for A20U A35G C38U, 0.63; as for A20U U54C U72C, 0.2.
As for A20G C39U C62U G73A, the figure is 0.36; as for A20G C39U U78C U80C, 0.21; as for A20U U31C U43C U60C C62U G70A, 0.12.
As for A20G U48C A64G U72C, the self-cleavage is 0.13.
As for A20U C50A U72A U80C, the figure is 0.58.
A20U C29U U31A U76A A77U: the self-cleavage was 0.1.
In the case of A20G G30A U31G C32U U76A it was 0.15.
Consider A20G U25C A35C A47G U51A, for which the self-cleavage is 0.11.
As for A20U A21C A64G U67C, the figure is 0.17; as for A20G A45U U72C, 0.13; as for A20G A45U U72A, 0.15.
In the case of A20G A45G U66C it was 0.19; in that of A20G A35U U41A, 0.25; in that of A20G U31A A45G U49A U60A, 0.16.
As for A20G A45U A75U U80C, the figure is 0.61; as for A20G U43C A45U G61A, 0.26.
Take A20G C40U A65G: the self-cleavage worked out at 0.14.
As for A20U A35G G63A U69C G73A, the figure is 0.43; as for A20G G33A C34G A75G, 0.06.
In the case of A20G U58C A64U A65G, the self-cleavage amounted to 0.1.
In the case of A20G G46A U74C it was 0.31.
Regarding A20G A28C G52A, the self-cleavage was 0.3.
Turning to A20U U54A C62U U78A, the self-cleavage is 0.16.
A20G U25C U51C A56G: the self-cleavage was 0.43.
In the case of A20G C40U C59A, the self-cleavage is 0.25.
In the case of A20G U41C A56G U67C it was 1.05; in that of A20G C27U C29A G33A U80C, 0.1.
Regarding A20G A35U U51G C62U A64G, the self-cleavage turned out to be 0.09.
In the case of A20G G61A U67A C68A it was 0.1.
For A20U C29U A56U, the self-cleavage amounted to 0.12.
In the case of A20U A21U U26C it was 0.24; in that of A20G A45U U49C U51C U69C U80A, 0.15.
In the case of A20G A28G C59A A64G C81U it was 0.14; in that of A20G G24A U43C U60C U76C, 0.15; in that of A20G U31C A65C U74A, 0.15.
Take A20U A35G C38A U41G C71A: the self-cleavage came out at 0.15.
In the case of A20U G53A C62U A77G it was 0.11.
In the case of A20G U25C A35U A64U, the self-cleavage is 0.14.
As for A20G U26C C38A A45G, the figure is 0.23; as for A20U U41A U49C U54C C59G U69A, 0.04; as for A20G G22A A35U G46A U74A U76A, 0.21.
For the variant A20G U69A U74C, the self-cleavage came out at 0.55.
Take A20G A64C U67C: the self-cleavage was found to be 0.21.
For the variant A20G U25A U43C U67A U80C, the self-cleavage amounted to 0.18.
For the variant A20U G22U C40U U78C, the self-cleavage came out at 0.13.
A20G A28G U60A A65U G70C: the self-cleavage was found to be 0.07.
For the variant A20G A28G U54C, the self-cleavage stood at 0.49.
With A20U U25A U74A U76C, the self-cleavage was 0.35.
As for A20G A35G U41A U51C, the figure is 0.41; as for A20G A64G U72A, 0.31; as for A20U C29G U31A A57C U69A U72A, 0.05.
In the case of A20U G30A A64G U69G, the self-cleavage stood at 0.1.
For A20G U31A A35U U48C, the self-cleavage was 0.18.
As for A20U U51C U54G A57G U60A U72C, the self-cleavage amounted to 0.12.
In the case of A20G A47G U72A it was 0.18.
In the case of A20G U43C A45G U80C it was 0.41.
For the variant A20U A56U U58C, the self-cleavage is 0.17.
Take A20U G36A A47U: the self-cleavage is 0.08.
Turning to A20G C29U U58C U60A C62U U66C, the self-cleavage amounted to 0.33.
As to A20G U43G U69A U78C, the self-cleavage was 0.21.
In the case of A20G A56G A77G it was 0.5; in that of A20G U51G A56G, 0.45.
